{
  "source": "the supplement of paper PMC11417369",
  "note": "Some of the results follow.",
  "data": [
    {"test_system": "PfHDP1 homeodomain (GST-tagged)", "test": "gcPBM binding intensity (ln(normalized median fluorescence intensity)); higher = stronger DNA binding", "outline": "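Binding intensity is the highest Masliner-normalised natural-log median intensity over replicate spots in either probe orientation. To obtain it, GST-tagged P. falciparum DNA-binding domains made in E. coli were incubated for 1 h on an Agilent 4 × 180k array of primer-extended double-stranded 36-bp intergenic genomic probes plus negative controls. Detection used Alexa488 anti-GST antibody with scanning at 488 nm.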", "values": [
      {"sequence": "GTAAAAGAACGGCATGCATGAAAAATATTACACATG [TGCATGCA_site143]", "gcPBM binding intensity (ln)": 6.84},
      {"sequence": "TGAACTCAACAAAGGGTGCATAACAAAAATAGACGT", "gcPBM binding intensity (ln)": 8.77},
      {"sequence": "TTATTATTATATTCTACATGCAGTTTGTGTAGAACA [TGCATGCA_site455]", "gcPBM binding intensity (ln)": 6.43},
      {"sequence": "AATATATGGTTTCATGATATTAAATACAATTTAATG [CACACA_negctrl_site1503]", "gcPBM binding intensity (ln)": 5.88},
      {"sequence": "CTATAATTATGATGAAGTACATATGAGTTCAAAAAA [XGTACX_site3070]", "gcPBM binding intensity (ln)": 6.57},
      {"sequence": "ATATATATATGTATATGTACTTATATTATTGTTTGT [XGTACX_site1466]", "gcPBM binding intensity (ln)": 8.71},
      {"sequence": "ATTATAATTACTCTAGTGCATTATAAATATGAATAA", "gcPBM binding intensity (ln)": 9.79},
      {"sequence": "CTCAAATTTATTAGTGGTACATAACCAAGGAAATAA [XGTACX_site225]", "gcPBM binding intensity (ln)": 6.46},
      {"sequence": "AAGTTATTTATATATACACACAAATATAAATAATAT [CACACA_site1228]", "gcPBM binding intensity (ln)": 6.59},
      {"sequence": "AGGACAAGGGTTACATGTACATATATATATATATAT [XGTACX_site901]", "gcPBM binding intensity (ln)": 9.22},
      {"sequence": "ATAAATAAAAATAGAACACACATATGTTTTTTTTTT [CACACA_site3556]", "gcPBM binding intensity (ln)": 6.22},
      {"sequence": "TTAATTGAAACTTATTGTACTTTTTTTTTTTTTTTT [XGTACX_site8162]", "gcPBM binding intensity (ln)": 6.48},
      {"sequence": "CCTAGAAAAAAGAACTGTACATATATATATAAATAT [XGTACX_site1680]", "gcPBM binding intensity (ln)": 6.65},
      {"sequence": "ATATGCAGAGACTGTTTGCACTTTTTTATTTTATGT [GTGCAC_site9695]", "gcPBM binding intensity (ln)": 7.95},
      {"sequence": "TGAAAAAATATAATTTGTACATATCAGGCAAAAATG [XGTACX_site1824]", "gcPBM binding intensity (ln)": 6.31},
      {"sequence": "ATATATATTATATATTGTACATATTATATTCATTAT [XGTACX_site1766]", "gcPBM binding intensity (ln)": 6.77},
      {"sequence": "TTTATTAATTTATAGTGTACATATTAATAATATATT [XGTACX_site7949]", "gcPBM binding intensity (ln)": 6.36},
      {"sequence": "ATAAATTATATTATTGAACACACGTTTGGTAATGTT [CACACA_site2662]", "gcPBM binding intensity (ln)": 6.33},
      {"sequence": "AAAAAAATAATAAAAAGTACAAAATGTAGAAAATGT [XGTACX_site5018]", "gcPBM binding intensity (ln)": 7},
      {"sequence": "AAAAAATAAAACATATATAATATATAATATATATAT [GTGCAC_negctrl_site447]", "gcPBM binding intensity (ln)": 8.17},
      {"sequence": "AATGTGAAAACGTGTACACATTTTATTTAATTTATC [CACACA_site5966]", "gcPBM binding intensity (ln)": 6.62},
      {"sequence": "AAAATTGATATATGCACACATATATATATTAAATAT [CACACA_site763]", "gcPBM binding intensity (ln)": 10.1},
      {"sequence": "AAAAAAAAAAAAAACACACATACACATATATTTTTA [CACACA_site3893]", "gcPBM binding intensity (ln)": 6.63},
      {"sequence": "TTTCATTCTGGTATCACACATTTATTTTCTAGTTTA [CACACA_site4286]", "gcPBM binding intensity (ln)": 6.59},
      {"sequence": "TTTTTTTTTATAGCTAAACACACATAAGAATATATG [CACACA_site8282]", "gcPBM binding intensity (ln)": 6.21},
      {"sequence": "AGTTATAATAAAAAATGTACGTATTATCATTAAGAA [XGTACX_site4244]", "gcPBM binding intensity (ln)": 6.39},
      {"sequence": "TATAAATATAAAAGGAGTACAAATATATATATATAT [XGTACX_site1386]", "gcPBM binding intensity (ln)": 9},
      {"sequence": "GAAAATAAAAAATATGAACACACATATATAACAAAA [CACACA_site7975]", "gcPBM binding intensity (ln)": 6.97},
      {"sequence": "TCCTAATATATGTATGCACACACAATATATACATAT [CACACA_site9111]", "gcPBM binding intensity (ln)": 9.24},
      {"sequence": "AAAAAAATTAAACATACACACGTTACTATTTTTATA [CACACA_site5009]", "gcPBM binding intensity (ln)": 6.15},
      {"sequence": "AACAAGGCCCGGTACTGTACATTTTTTCATAACATT [XGTACX_site6134]", "gcPBM binding intensity (ln)": 6.05},
      {"sequence": "TATATACATATATACACACACATATATTATATATAT [CACACA_site275]", "gcPBM binding intensity (ln)": 7.06},
      {"sequence": "GTATGTATATTTATCTGTACATATTTATGTATTCTT [XGTACX_site2112]", "gcPBM binding intensity (ln)": 6.35},
      {"sequence": "AGGAAAAAATCGAGTAGTACACATTTAGAAATATAA [XGTACX_site8019]", "gcPBM binding intensity (ln)": 6.53},
      {"sequence": "AAAATATAAATTCATGTGCACATATATATTTTGTTA [GTGCAC_site9782]", "gcPBM binding intensity (ln)": 10.7},
      {"sequence": "ATATCACATATATATATATATATATATATATATATA [XGTACX_negctrl_site463]", "gcPBM binding intensity (ln)": 9.51},
      {"sequence": "TTTAAACCTTAATATTGTACGCAAAAAAAAAAAGAA [XGTACX_site3757]", "gcPBM binding intensity (ln)": 6.59},
      {"sequence": "TATTAATAATTAAGTTGTACATTAATTAATATACTG [XGTACX_site6994]", "gcPBM binding intensity (ln)": 6.25},
      {"sequence": "TTTAATATTAATAATTGTACATTTTCATAAATACGC [XGTACX_site2837]", "gcPBM binding intensity (ln)": 6.37},
      {"sequence": "TTATTAATTTATAAATGTACGAATTTTTTATTTAAC [XGTACX_site7605]", "gcPBM binding intensity (ln)": 6.37},
      {"sequence": "CATATCAATAATATCACACATATATGTGATTTTATT [CACACA_site5053]", "gcPBM binding intensity (ln)": 6.41},
      {"sequence": "CCCCTTAATTAAAGGAGTACTATTTGTGAATAATAT [XGTACX_site4715]", "gcPBM binding intensity (ln)": 6.93},
      {"sequence": "TTTATGTAGGAACTAACACACATTGTAAGATTCAGA [CACACA_site1998]", "gcPBM binding intensity (ln)": 6.08},
      {"sequence": "GGAACTTTTGGAGGTGCATGCGGAGCAATCTTTTCA [TGCATGCA_site454]", "gcPBM binding intensity (ln)": 8.33},
      {"sequence": "GAAGGAAATAAATCAACACACATATATTATAGATAT [CACACA_site7095]", "gcPBM binding intensity (ln)": 6.39},
      {"sequence": "ATAATGTAAAATAAATGTACGCAATATATAAAAAAT [XGTACX_site5747]", "gcPBM binding intensity (ln)": 6.89},
      {"sequence": "TATTGAAAGTGAATTATAACATTAAAAATATATATA [TGCATGCA_negctrl_site566]", "gcPBM binding intensity (ln)": 6.21},
      {"sequence": "CAATATAAAAGACACACACACAAACATATATTTATA [CACACA_site7697]", "gcPBM binding intensity (ln)": 6.91},
      {"sequence": "TGAATATGTAAATGCACACCAAAAAAAAAAAAAAAA [CACACA_site3566]", "gcPBM binding intensity (ln)": 9.97},
      {"sequence": "TTCTTAATACAAATATGTACATATATATATATATAT [XGTACX_site757]", "gcPBM binding intensity (ln)": 9.41},
      {"sequence": "ACGAATATAGGATGTTTGCACTGTACCAATAAATGA [GTGCAC_site9808]", "gcPBM binding intensity (ln)": 8.31},
      {"sequence": "ACCTATTTCAAACACACACACACACCCACAAACATA [CACACA_site977]", "gcPBM binding intensity (ln)": 7.37},
      {"sequence": "TCATTTTAAGGAAAAAGTACAAAATAATATGTTCCT [XGTACX_site1903]", "gcPBM binding intensity (ln)": 6.11},
      {"sequence": "AATAGAAAAAAAAAATGTACAAAATGTTTATAAAAA [XGTACX_site4635]", "gcPBM binding intensity (ln)": 6.34},
      {"sequence": "GATGTGTAAATAAGGATATATAACAATCAACAAAAC [XGTACX_negctrl_site494]", "gcPBM binding intensity (ln)": 7.11},
      {"sequence": "AAATGAATATAAAATATACACACTTATATATTGAAT [CACACA_site202]", "gcPBM binding intensity (ln)": 6.28},
      {"sequence": "AAATTACCCTTGTGTACACATATATTATCTGTATTA [CACACA_site4514]", "gcPBM binding intensity (ln)": 8.02}
    ]}
  ]
}
